Laboratory results reported in PubChem BioAssay AID485297 (National Center for Advancing Translational Sciences (NCATS), 2010).
Out of some 320,000 compounds screened, about 9,100 (2.8%) were called active. The inconclusive results got no clear call from the source; some entries with a clear call stand among them for comparison. The call rests on the fitted dose curve; in most records, active means well fitted activation curve with a large enough effect; inconclusive means small, poorly fitted or top-dose-only effect; inactive means no such curve, though single readings can be large or run the other way. No potency is given beside an inconclusive call; the fits are too rough.

Assay: qHTS Assay for Rab9 Promoter Activators; further: nearly all actives have a fitted effect of over 60% in size; on activation, negative = inhibition: % of control where 0% means no effect
Settings: Huh7 Rab9 promoter-luciferase reporter, luminescence, 24 h; series mostly up to 9.22 µM; activation, negative = inhibition: at the top concentration
Outline: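 Stable Rab9-luc Huh7, 1500 cells/well, 2 h settle; cmpd in DMSO, 24 h, 37 °C/5% CO2; luciferase reagent 10 min RT; luminescence.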
Potency means the concentration at half of the fitted maximal effect; tags describe the fitted curve by direction and shape.

Row | Compound | Potency | activation, negative = inhibition
1 | Cc1cccn2cc(-c3ccccc3)nc12 | active: 1.78 µM | 
2 | CC1C(=O)N2CCCc3cc(NC(=O)CC(C)(C)C)cc1c32 (stereo not drawn) |  | inactive: -1.88%
3 | CC(C)c1ccc(N(C(=O)c2ccco2)C(C(=O)NC2CCCC2)c2ccncc2)cc1 (stereo not drawn) | inconclusive [activator, partial curve] | 
4 | O=C(Nc1ccccc1)N1CC=C(c2ccccc2)CC1 | active: 1.58 µM | 
5 | O=C(c1ccc(Cl)cc1)c1cnc(-c2ccccc2)s1 | active: 2.82 µM | 
6 | O=C(CC(=O)NC1CCCCC1)N/N=C/c1ccccc1[N+](=O)[O-] | inconclusive [activator, partial curve] | 
7 | O=C(O)c1cccc(-n2cc(-c3cccc(C(F)(F)F)c3)cn2)c1 | active: 0.355 µM | 
8 | c1cc2cc(-c3c(-c4ccc5c(c4)OCO5)noc3-c3ccsc3)ccc2[nH]1 | inconclusive [activator, partial curve] | 
9 | O=C(CCc1ccc(S(=O)(=O)NCCc2ccccc2)cc1)Nc1ccc2c(c1)OCCO2 |  | inactive: 0.284%
10 | COc1ccc2oc(C(=O)OCC(=O)NC3CCCC3)c(C)c2c1 |  | inactive: 19.1%
11 | Cc1ccc(-c2ccc(/C=N/NC(N)=S)o2)cc1 | inconclusive [activator, partial curve] | 
12 | COc1ccc(NC(=O)CCCC2CCCCC2)c(OC)c1 | inconclusive [activator, partial curve] | 
13 | Nc1c2c(nc3sc4c(c13)CCCCC4)CCCCC2 | active: 1.58 µM | 
14 | O=C(NCc1nc2ccccc2[nH]1)c1ccccc1F | inconclusive [activator, single point] | 
15 | Cc1ccc(N=C2NC(=O)/C(=C\c3ccco3)S2)cc1 | inconclusive [activator, single point] | 
16 | CC(C)COC(=O)C1C(=O)CC(C)(O)C(C(=O)OCC(C)C)C1c1cccnc1 (stereo not drawn) | inconclusive [activator, single point] | 
17 | CCCCOC(=O)n1c(SCC(=O)N(C)C)nc2ccccc21 | inconclusive [activator, partial curve] | 
18 | Cc1c(OCC(=O)N[C@H](C(=O)O)c2ccccc2)ccc2c3c(c(=O)oc12)CCCC3 |  | inactive: -5.33%
19 | Nc1cc2nc[nH]c2cc1N |  | inactive: 11.2%
20 | O=C(CSc1nncc2ccccc12)N1CCCCC1 | inconclusive [activator, partial curve] | 
21 | CC1CC(C)CN(C(=O)CSc2nc3ccsc3c(=O)n2Cc2ccccn2)C1 (stereo not drawn) | inconclusive [activator, single point] | 
22 | Cc1cccc(Cl)c1NNC(=O)Nc1c([N+](=O)[O-])c(C)nn1C |  | inactive: -2.61%
23 | CC(C)=NN/C(N)=N/C(=S)Nc1ccc(C)cc1 |  | inactive: 21.8%
24 | CCOc1ccc(S(=O)(=O)NCCc2cn3ccccc3n2)cc1 |  | inactive: 3.25%
25 | Cc1ccc(OCc2nc(-c3ccccn3)n[nH]2)cc1 | inconclusive [activator, partial curve] | 
26 | CC(C(=O)Nc1ccc2c(c1)OCCO2)N(C)CC(=O)Nc1ccccc1Br (stereo not drawn) |  | inactive: -4.02%
27 | Cc1c(C(=O)OC(C)C)sc(NC(=O)c2cccnc2)c1C#N | inconclusive [activator, partial curve] | 

Row | Compound | Potency | activation, negative = inhibition
28 | O=C(CNC(=O)c1ccccc1F)OCn1nnc2ccccc2c1=O |  | inactive: -1.15%
29 | N#Cc1c(NC(=O)c2ccc([N+](=O)[O-])o2)sc2c1CCC2 | active: 1.58 µM | 
30 | CCOc1ccc2nc(NC(=O)Cn3[nH]c(=O)c4ccccc4c3=O)sc2c1 | inconclusive [activator, single point] | 
31 | O=c1cc(OCc2ccccc2)cc[nH]1 |  | inactive: 1.85%
32 | COC(=O)c1ccccc1NC(=O)c1cc2ccccc2o1 | inconclusive [activator, partial curve] | 
33 | CCc1nnc(NC(=O)c2sc3nc4c(cc3c2N)CCCCC4)s1 | active: 1.58 µM | 
34 | COc1cccc(C(=O)Nc2ccccc2)c1 | inconclusive [activator, partial curve] | 
35 | O=C(NNC(=S)NC1CCCCC1)c1ccc(Cl)s1 | inconclusive [activator, partial curve] | 
36 | Cc1ccc(-c2nnc(-c3ccccc3Br)o2)cc1 | active: 3.98 µM | 
37 | CC1=CC(c2ccccc2)=Nc2ccc(C)cc2N1 | active: 3.98 µM | 
38 | COCCn1c(SCC(=O)NC(=O)NC(C)(C)C)nc2ccccc21 |  | inactive: -7.47%
39 | CNc1nc(C)c(C(=O)OCc2ccccc2)s1 | inconclusive [activator, partial curve] | 
40 | O=C(Nc1cccc(-c2ccc(N3CCCCC3)nn2)c1)c1ccco1 | active: 2.82 µM | 
41 | Cc1cccc2nc(COc3ccc(-c4ccccc4)cc3)cn12 | inconclusive [activator, single point] | 
42 | Cc1cccc(C(=O)OCC(=O)c2ccc3c(c2)OCO3)c1O | active: 1.41 µM | 
43 | COc1ccc(Cl)cc1NC(=O)CCn1c(=O)oc2ccccc21 |  | inactive: 2.34%
44 | CCOC(=O)Cn1cnc2c(cnn2-c2ccc(Cl)cc2)c1=O | inconclusive [activator, single point] | 
45 | Cc1ccc(/C=C/C(=O)c2ccc(N3CCOCC3)cc2)s1 | inconclusive [activator, single point] | 
46 | CCSc1nnnn1-c1ccccc1 |  | inactive: 11.4%
47 | COC(=O)c1c(NC(=O)COC(=O)c2ccc(O)cc2)sc2c1CCCCC2 |  | inactive: 1.02%
48 | Cc1nn(-c2ccccc2)c(C)c1/C=N/NC(=O)c1cccs1 | inconclusive [activator, single point] | 
49 | O=C(CSc1nnc(NC(=O)c2ccc(F)cc2F)s1)NC1CC1 | inconclusive [activator, partial curve] | 
50 | CN(Cc1ccccc1)c1ncnc2c1cnn2-c1ccccc1 | active: 2.82 µM | 
51 | CC(=O)Nc1cccc(OCC(=O)Nc2ccccc2)c1 | active: 3.16 µM | 
52 | N#C/C(=C(/O)c1cccs1)c1nc2ccccc2[nH]1 | inconclusive [activator, single point] | 
53 | CC1CCCCN1C(=O)CSc1nnc(-c2c[nH]c3ccccc23)o1 (stereo not drawn) | inconclusive [activator, single point] | 
